In all, about 52,000 compounds went through this assay and about 4,300 (8.3%) were called active. Rule as the data show it: active = survival mostly below about 52% (no sharp cut-off); inactive = mostly above about 56%. The list shows a part of the results.
What follows are compounds tested on DeltatarO mutant (assay: growth inhibition of S. aureus wild type versus tarO mutant, primary screen, teichoic acid synthesis inhibitors, RN4220, OD600 (AID 463173)). Settings: OD600, 18 h, hits give low values; concentration not given here unless noted.

| SMILES | survival |
| --- | --- |
| O=C1NC(=S)NC(=O)C1C1CCCCC1 | inactive: 74% |
| Cc1ccc(OCC(=O)Nc2ccc(Cl)cc2C(=O)c2ccccc2)cc1 | inactive: 67% |
| O=S1(=O)N(Cc2ccccc2)CCCN1Cc1ccc(F)cc1Cl | inactive: 87% |
| O=C(Nc1ccc(Br)cc1C(=O)c1ccccc1)c1ccccc1 | active: -1% |
| CCN(CC)Cc1c[nH]c2ccccc12 | inactive: 90% |
| CCOC(=O)c1ccc(NC(=O)c2sc3nc4c(cc3c2N)N2CCC4CC2)cc1 | inactive: 68% |
| CC1CC2(O)c3no[n+]([O-])c3CCC2N1O (stereo unspecified) | inactive: 85% |
| C1CNC2NCCNC2N1 (stereo unspecified) | inactive: 68% |
| Cc1cc(C)cc(OCC(=O)Nc2ccc(Cl)cc2C(=O)c2ccccc2)c1 | inactive: 82% |
| COc1ccc(OCC(=O)N2CCN(Cc3cccc(OC)c3OC)CC2)cc1 | inactive: 180% |
| CCCCCn1c(=O)c(C(=O)Nc2ccccc2S(N)(=O)=O)c(O)c2ccccc21 | active: 0% |
| Nc1nonc1C1=NOC(c2nonc2N)=NO1 | inactive: 100% |
| Cc1n[nH]c(C)c1CCN | inactive: 80% |
| O=C1NC(=O)C(CCc2ccncc2)(CCc2ccncc2)C(=O)N1C1CCCCC1 | inactive: 78% |
| CCOc1ccc(CN(CCc2ccc3c(c2)OCO3)Cc2cc(OC)ccc2O)cc1 | inactive: 62% |
| Cc1cc(OCC(=O)N2CCN(CCc3ccncc3)CC2)ccc1Cl | inactive: 49% |
| Cc1ccc(NC(=O)N(Cc2ccc3c(c2)OCO3)C2CCN(Cc3ccccc3)CC2)cc1C | active: 17% |
| COc1ccc(-n2c(/C=C\c3ccccc3F)nc3ccccc3c2=O)c(OC)c1 | inactive: 89% |
| N#Cc1cc2c(nc1SCC(=O)Nc1ccc(C(F)(F)F)cc1)C1CCN2CC1 | active: 8% |
| CCN1CCN(Cc2ccccc2C#N)CC1 | inactive: 85% |
| CC(C)c1ccc(OCC(=O)N2CCN(CCc3ccncc3)CC2)cc1 | active: 44% |
| COc1ccc(OC)c(C(c2c(O)c3ccccc3oc2=O)c2c(C)n(C)n(-c3ccccc3)c2=O)c1 (stereo unspecified) | inactive: 56% |

| SMILES | survival |
| --- | --- |
| CCc1cccc(NC(=O)CN2C(=O)CN=C(c3ccccc3F)c3cc(Cl)ccc32)c1 | inactive: 94% |
| O=c1c2ccccc2nc(-c2ccco2)n1-c1ccc(Cl)cc1 | inactive: 76% |
| Cc1ccc2c(c1)C1CN(C)CCC1N2 (stereo unspecified) | inactive: 81% |
| CCCCn1c(C)c(C(=O)OCC)c2cc(OC)ccc21 | inactive: 107% |
| O=C1CCCN1C(=O)c1cc(Cl)cc(Cl)c1 | inactive: 101% |
| OC1CCNC2CCCCC12 (stereo unspecified) | inactive: 94% |
| Cc1nc2ccccc2c(=O)n1-c1cccc(O)c1 | inactive: 96% |
| Cc1cccc(-n2c(/C=C/c3c[nH]c4ccccc34)nc3ccccc3c2=O)c1 | active: 26% |
| Cc1cccnc1-n1c(C)nc2ccccc2c1=O | inactive: 76% |
| CSc1ccc(CN2CCN(C(=O)COc3cccc(C)c3)CC2)cc1 | inactive: 84% |
| CN(C)c1ccc(/C=C2/C(=O)C3CCN2CC3)cc1 | inactive: 95% |
| COc1ccc(-c2nc(CN3C(=O)CN=C(c4ccccc4)c4ccccc43)c(C)o2)cc1 | inactive: 84% |
| COc1ccc(C=C2C(=O)N(C)C(=O)N(C)C2=O)cc1 | inactive: 103% |
| CC(C)C(=O)N1N=C(c2cccnc2)CC1(O)C(F)(F)F (stereo unspecified) | inactive: 66% |
| CCOC(=O)C1C2NC(=S)NC1(C)Oc1ccccc12 (stereo unspecified) | inactive: 69% |
| COc1ccc(NC(C)=O)cc1NC(=O)c1cccn(Cc2ccccc2)c1=O | inactive: 72% |
| N#Cc1cccc(NC(=O)CSc2nc3c(cc2C#N)N2CCC3CC2)c1 | inactive: 88% |
| Cc1nnc(NC(=O)c2cccn(Cc3cccc([N+](=O)[O-])c3)c2=O)s1 | inactive: 62% |
| CC1(C)C(C(=O)Nc2cc(Cl)ccn2)C1(C)C | inactive: 84% |
| O=c1c2ccccc2nc(-c2ccccc2)n1-c1ccccn1 | inactive: 85% |
| O=c1cccc2n1CC1CC2CN(c2nc(Cl)nc(Cl)n2)C1 (stereo unspecified) | inactive: 80% |
| CCOc1ccccc1CN(CCc1ccc2c(c1)OCO2)Cc1ccc(CC)cc1 | inactive: 111% |

| SMILES | survival |
| --- | --- |
| CC(C)(C)c1ccc(OCC(=O)Nc2ccc(Cl)cc2C(=O)c2ccccc2)cc1 | inactive: 70% |
| Cc1ccccc1-n1c(/C=C/c2ccc(O)cc2)nc2ccccc2c1=O | active: 35% |
| Cc1ccc(Cn2cccc(C(=O)Nc3nnc(C)s3)c2=O)cc1 | inactive: 75% |
| CCN(CC)C(=O)c1ccc(NC(=O)Cn2nc(-c3ccc(C)cc3)c3ccccc3c2=O)cc1 | inactive: 50% |
| c1cc2c(cc1CN1CCNCC1)OCO2 | inactive: 98% |
| CCOC(=O)c1ccc(NC(=O)c2cccn(Cc3ccc(C)cc3)c2=O)cc1 | inactive: 77% |
| COc1ccc(CC2C(=O)N(C)C(=O)N(C)C2=O)cc1 | inactive: 75% |
| CCOC(=O)C1=C(C)NC(C)=C2C(=O)Oc3ccccc3C12 (stereo unspecified) | inactive: 62% |
| N#Cc1cc2c(nc1SCC(=O)Nc1ccc(F)c(Cl)c1)C1CCN2CC1 | active: -2% |
| c1cc(CN2CCNCC2)ccn1 | inactive: 105% |
| O=C1CC(c2ccc(F)cc2)c2c(c3ccccc3oc2=O)O1 (stereo unspecified) | inactive: 82% |
| COc1ccc(CCNCc2ccc3c(c2)n(C)c(=O)n3C)cc1 | inactive: 87% |
| O=C(Nc1ccc(Br)cc1C(=O)c1ccccc1Cl)c1ccccc1F | inactive: 52% |
| CCOc1ccc(NC(=O)c2cccn(Cc3cccc(Cl)c3)c2=O)cc1 | inactive: 67% |
| CN1C(=O)C(Cc2nc3ccccc3c(=O)n2-c2ccccc2)c2ccccc21 (stereo unspecified) | inactive: 85% |
| CCOC(=O)CC1=C(C(=O)OCC)C2(C(=O)N(C)c3ccccc32)C(C#N)=C(N)O1 (stereo unspecified) | active: 0% |
| CC(c1ccccc1F)n1cc(C(=O)NC2CCCC2)nn1 (stereo unspecified) | inactive: 88% |
| Cc1oc(-c2ccccc2Cl)nc1CN1C(=O)CN=C(c2ccccc2)c2cc(Cl)ccc21 | inactive: 77% |
| CCCOc1ccc(CCN)cc1Cl | inactive: 74% |
| COc1ccc(NC(=O)CCc2nc(C3=CCN(Cc4cccc(Cl)c4)CC3)no2)cc1OC | inactive: 67% |
| Clc1ccc(NCCN2CCCCCC2)nn1 | inactive: 86% |
| O=c1c2ccccc2nc(/C=C/c2ccccc2O)n1-c1ccc(Br)cc1 | active: 41% |

— PubChem BioAssay AID463173 (ICCB-Longwood Screening Facility, Harvard Medical School, 2010)
